Hit rate of the full screen: of about 340,000 compounds, about 6,900 (2%) were called active. Cut-off read from the data, not from the text of the source: active = inhibition above about 30%; inactive = below that, where a call was filed. The list shows a part of the results, in another mix than the full data. Entries without a call were filed so in the source.

UniProt P14416, sequence (P14416 whole entry, looked up): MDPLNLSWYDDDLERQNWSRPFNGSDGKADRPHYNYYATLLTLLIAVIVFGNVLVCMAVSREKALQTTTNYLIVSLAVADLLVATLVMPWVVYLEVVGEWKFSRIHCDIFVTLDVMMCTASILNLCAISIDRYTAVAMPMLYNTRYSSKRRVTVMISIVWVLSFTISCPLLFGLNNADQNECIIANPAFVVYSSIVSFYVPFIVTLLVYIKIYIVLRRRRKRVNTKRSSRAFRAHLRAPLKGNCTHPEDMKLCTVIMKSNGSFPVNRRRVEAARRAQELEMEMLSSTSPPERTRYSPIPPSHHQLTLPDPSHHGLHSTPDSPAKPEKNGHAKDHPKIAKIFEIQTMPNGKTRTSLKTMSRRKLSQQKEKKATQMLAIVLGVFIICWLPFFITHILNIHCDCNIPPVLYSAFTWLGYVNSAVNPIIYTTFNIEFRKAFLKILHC

This assay concerns the target D(2) dopamine receptor (Homo sapiens) (UniProt P14416). Briefly: HTS Assay for Allosteric Antagonists of the Human D2 Dopamine Receptor: Primary Screen for Antagonists. Note: 0% is about no effect. The note with it: HEK293 TREx D2 cells, calcium flux, dopamine EC80; at 10 µM; stronger effect = higher value. The source says:
NIH Chemical Genomics Center [NCGC] NIH Molecular Libraries Probe Centers Network [MLPCN] MLPCN Grant: NS064831-01 Assay Submitter (PI): David Sibley Dopamine receptors (DARs) are involved in the etiology and/or therapy of a number of neuropsychiatric and endocrine disorders. For instance, all receptor-based antiparkinsonian drugs work via stimulating the D2 DAR subtype whereas all FDA-approved antipsychotic agents are antagonists of this receptor. […] There are three different types of allosteric modulators that we are seeking, two of which will stimulate or augment receptor signaling, allosteric agonists and potentiators, while the third, allosteric antagonists, will attenuate receptor signaling. The present primary screening assay measures compound antagonism after an EC80 addition of dopamine by tracking calcium flux in a […], inducible Hek293 Trex D2 cell line.
Freshly passaged cells are plated in 1536 well black, clear bottom plates at a density of 4000 cells/well in 3 ul of complete media containing 1x tetracycline inducer. After an overnight incubation at 30 C in 5% CO2, cells are loaded with 2 ul of the no wash Calcium Assay Kit (ABD Bioquest) and incubated at room temperature for 30 to 90 minutes. Agonist read: A 10 cycle (1 second/cycle) baseline measurement is taken and then the FDSS online 1536 pintool delivers 23 nl of compound library (as well as dopamine controls) to the plate. The plate is measured for kinetically at 1 cycle/sec for 180 seconds. Following the 180 second read, 1 ul of an EC80 (negative modulation assay) is delivered by an onboard pipette head. Measurements are taken kinetically for an additional 180 seconds.
As usually defined, the inhibition is the relative decrease from the control value, in per cent. For `Cc1nn(CC(=O)Nc2cccc(C(F)(F)F)c2)c(=O)c2nn(-c3ccccc3)c(C)c12`, the inhibition worked out at 5.66%.

Turning to `COc1ccc(OC)c(NC(=O)C(=O)NNC(=O)c2cccs2)c1`, the inhibition is active: 38.1%.

Turning to `CN(C(=O)CSc1nc2ccccc2n1Cc1cccc(C(F)(F)F)c1)c1ccccc1`, the inhibition was -23.8%.

With `CCOc1ccc(-n2c(=O)c3c(C)c(C)sc3n(Cc3cc(=O)n4cc(Cl)ccc4n3)c2=O)cc1`, the inhibition was 0.521%.

As for `CC(C)CSc1oc(-c2ccco2)nc1S(=O)(=O)c1ccc(Br)cc1`, the inhibition was -12.9%.

Regarding `CCOc1ccc(-n2c(SCC(=O)NC)nnc2-c2ccco2)cc1`, the inhibition is active: 36.3%.

As to `O=C(NCCc1csc(-c2ccc(F)cc2)n1)c1c(F)cccc1Cl`, the inhibition is 1.05%.

`O=C(COC(=O)c1cc(-c2ccccc2)nc2c(Cl)cccc12)c1ccc(F)cc1`: the inhibition was 11.5%.

With `COc1ccc(C)cc1NC(=O)CC(=O)Nc1ccc2nc3n(c(=O)c2c1)CCCCC3`, the inhibition is -8.88%.

Consider `CCOc1ccc(C2=CC(c3cc(Br)ccc3F)n3ncnc3N2)cc1Cl` (stereo not drawn), for which the inhibition turned out to be 4.81%.

`Cc1cccc(Cn2c(=O)oc3ccc(C)cc32)c1`: the inhibition was active: 31.5%.

With `O=S(=O)(c1ccccc1)N1CCC(N2CCN(c3ccccc3)CC2)CC1`, the inhibition is active: 70.7%.

Turning to `COc1ccc(CNC(=O)c2cc(C)nc3c2c(C)nn3-c2cccc(Cl)c2C)cc1`, the inhibition was -1.77%.

`CC(C)CN(CCCNC(=O)c1cn(C)c2ccc(S(=O)(=O)N(C)C3CCCCC3)cc2c1=O)CC(C)C`: the inhibition is -20.2%.

Turning to `COc1cccc(NC(=O)C(CCSC)NC(=O)C2CCC(C)CC2)c1` (stereo not drawn), the inhibition is -6.11%.

Consider `CCn1cc(C(=O)N2CCN(c3ccc(OC)cc3)CC2)c(=O)c2cc(S(=O)(=O)N(C)C3CCCCC3)ccc21`, for which the inhibition turned out to be 5.08%.

Regarding `COc1cccc(CNC(=O)c2nn(C)c3c2CS(=O)(=O)c2ccccc2-3)c1`, the inhibition worked out at 0.407%.

Take `O=C(CSc1nnc(NC(=O)c2ccccc2F)s1)Nc1ccccc1F`: the inhibition is active: 36%.

As for `O=C(NCc1ccco1)c1ccc2c(c1)N(Cc1ccccc1F)C(=O)c1ccccc1S2=O` (stereo not drawn), the inhibition turned out to be 15.2%.

For the compound `COc1ccc(NC(=O)CSC2=Nc3ccccc3C3=NC(CCC(=O)NCCc4ccccc4)C(=O)N23)c(OC)c1` (stereo not drawn), the inhibition is -6.32%.

As to `COc1ccc(OCc2cc(C(=O)NC(C)Cc3ccccn3)no2)c(Cl)c1` (stereo not drawn), the inhibition was active: 32.5%.

On to `COc1ccc(CNC(=O)c2cc3cccc(OC)c3oc2=O)cc1`, for which the inhibition is -1.35%.

For the compound `Cc1ccc(NC(=O)Cn2c(=O)c(CNc3ccccc3)cc3cc4c(cc32)OCCO4)cc1`, the inhibition was -20.4%.

Turning to `COC(=O)c1ccc(NC(=O)CSc2n[nH]c(CC(C)C)n2)cc1`, the inhibition stood at 6.33%.

As for `Cc1cccc(C)c1NC(=O)CSCc1cnn(-c2ccccc2)c1-n1cccc1`, the inhibition is 6.71%.

In the case of `CCC(Sc1nc2ccccc2c2nc(CCc3c(C)n[nH]c3C)nn12)C(=O)Nc1ccccc1F` (stereo not drawn), the inhibition worked out at 11.7%.

Take `COc1ccccc1Cn1c(CNS(=O)(=O)c2cccc([N+](=O)[O-])c2)nc2cccnc21`: the inhibition is 9.16%.

Regarding `COc1ccc(C)cc1NC(=O)CCn1nc(C)cc1C`, the inhibition was 1.98%.

On to `Cc1ccc(-c2nonc2NC(=O)c2ccco2)cc1C`, for which the inhibition turned out to be 1.24%.

On to `COc1cc(CNc2ccc3[nH]c(=O)[nH]c3c2)cc(Cl)c1OCc1ccccc1F`, for which the inhibition was found to be 7.3%.

In the case of `Cc1ccc(-c2nc3ccccc3[nH]2)cc1NC(=O)COc1cccc(C)c1C`, the inhibition was 8.45%.

As to `Cc1ccc(CNC(=O)c2ccc3c(c2)N(Cc2cccc(C)c2)C(=O)CS3)cc1`, the inhibition is -7.76%.

As to `Cc1ccc(-c2nn(CC(=O)Nc3cccc(C(F)(F)F)c3)c(=O)c3ccccc23)cc1`, the inhibition came out at 2.37%.

Take `Cc1oc(C)c2c(=O)cc(-c3ccc4c(c3)OCO4)cc(OC(=O)c3ccc(Cl)cc3)c12`: the inhibition is 8.12%.

As to `CCN(Cc1ccccc1)C(=O)Cn1c(=O)n(-c2ccc(F)c(Cl)c2)c(=O)c2sc3ccccc3c21`, the inhibition is 5.82%.

`Cc1cccc(C)c1OCCSc1nc2ccccc2n1CC(=O)O`: the inhibition is -2.11%.

For `O=C(Nc1cccc(-c2nc3ccccc3o2)c1)c1cc([N+](=O)[O-])ccc1N1CCOCC1`, the inhibition is 16.2%.

On to `COC(=O)CC1Oc2ccc(F)cc2-n2cc(-c3ccc(Cl)cc3)nc21` (stereo not drawn), for which the inhibition is -12.5%.

As for `CC(=O)Nc1ccc(NS(=O)(=O)c2ccc3c(c2)CC(C)N3C(=O)C2CCC2)cc1` (stereo not drawn), the inhibition was found to be 0.607%.

Turning to `COc1ccc(-c2nc3c4cnn(-c5ccccc5F)c4ncn3n2)cc1`, the inhibition is -12.7%.

On to `COc1ccc(NC(=O)CN2CCCN(S(=O)(=O)c3ccc(Br)cc3)CC2)c(OC)c1`, for which the inhibition was -0.539%.

Regarding `Cc1cccc(-c2nc(CCNC(=O)c3ccco3)cs2)c1`, the inhibition came out at 9.52%.

For the compound `CCOC(=O)c1ccc(NC(=O)CCS(=O)(=O)c2ccc(C)cc2)cc1`, the inhibition was -9.14%.

As for `CC(C)OCCCNC(=O)CCCn1c(=O)[nH]c2ccsc2c1=O`, the inhibition is 23.1%.

With `Cc1ccc(CNC(=O)C2CCC(CNS(=O)(=O)c3ccc4c(c3)CCCC(=O)N4)CC2)cc1` (stereo not drawn), the inhibition is -5.65%.

As to `Cc1cc(C)cc(Nc2cc(C(=O)NCCCN(Cc3ccccc3)C(C)C)c3ccccc3n2)c1`, the inhibition was -13.1%.

Take `CCOc1ccc(CNC(=O)c2cc(=O)[nH]c3ccc(S(=O)(=O)N4CCCCC4)cc23)cc1`: the inhibition came to 0.564%.

With `COc1ccc(CN(C(=O)c2cc3ccccc3oc2=O)C2CCS(=O)(=O)C2)cc1` (stereo not drawn), the inhibition was 1.74%.

Values taken from PubChem BioAssay AID485344 (National Center for Advancing Translational Sciences (NCATS), 2010).
